Data from PubChem BioAssay AID488969 (Vanderbilt High Throughput Screening Facility, 2010).
Whole data set: some 110,000 compounds, median “z-score” near -0.1, cut for the highest 2% near 2. This is one part of the list. Active and inactive are the calls of the source.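 The calls were made as follows: active = z-score in the third read window above 3 or below -3; inactive = the rest.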

What follows are compounds tested against Metabotropic glutamate receptor 8 (Rattus norvegicus) (UniProt P70579) (assay: rat mGluR8 modulators via GIRK flux, primary screen, cell-based, thallium flux, HTS (AID 488969)). Conditions: HEK293 rat mGluR8, GIRK (G protein-gated inwardly rectifying potassium channel) thallium flux, FluoZin2; at 10 µM; stronger effect = higher value; submaximal glutamate (EC20) added with thallium.
Sequence of UniProt P70579 (P70579 whole entry, looked up): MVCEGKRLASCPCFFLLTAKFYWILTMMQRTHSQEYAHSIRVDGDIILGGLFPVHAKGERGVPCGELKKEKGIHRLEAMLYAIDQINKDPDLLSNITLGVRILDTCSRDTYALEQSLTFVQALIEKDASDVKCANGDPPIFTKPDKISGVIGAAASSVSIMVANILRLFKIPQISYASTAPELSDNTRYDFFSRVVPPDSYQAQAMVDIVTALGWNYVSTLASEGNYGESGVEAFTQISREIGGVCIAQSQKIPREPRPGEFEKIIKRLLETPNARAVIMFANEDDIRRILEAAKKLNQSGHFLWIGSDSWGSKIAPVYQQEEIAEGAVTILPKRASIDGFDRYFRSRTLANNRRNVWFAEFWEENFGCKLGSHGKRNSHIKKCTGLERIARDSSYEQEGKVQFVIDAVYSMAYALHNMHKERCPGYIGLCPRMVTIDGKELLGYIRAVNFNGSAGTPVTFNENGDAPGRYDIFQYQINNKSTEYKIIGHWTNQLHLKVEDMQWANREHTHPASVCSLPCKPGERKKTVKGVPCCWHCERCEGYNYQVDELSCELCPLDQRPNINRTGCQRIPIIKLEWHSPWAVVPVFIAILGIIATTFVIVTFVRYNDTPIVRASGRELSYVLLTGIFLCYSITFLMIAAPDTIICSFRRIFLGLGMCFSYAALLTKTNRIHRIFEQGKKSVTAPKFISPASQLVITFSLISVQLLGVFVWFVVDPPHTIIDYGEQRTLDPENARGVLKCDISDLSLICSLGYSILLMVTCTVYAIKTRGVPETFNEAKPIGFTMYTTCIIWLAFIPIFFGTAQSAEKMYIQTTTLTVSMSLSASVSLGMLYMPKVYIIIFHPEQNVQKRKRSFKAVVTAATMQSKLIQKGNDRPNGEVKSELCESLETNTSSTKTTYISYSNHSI

Row | SMILES | z-score
1 | CCn1c(SCc2ccc(C)cc2)nnc1C1CCN(S(=O)(=O)c2ccc(OC)cc2)CC1 | 0.387
2 | CCOC(=O)c1c(C)n(C)c2ccc(OC(=O)c3ccc([N+](=O)[O-])cc3)cc12 | -0.168
3 | COc1ccc(OCCC(=O)OCC(=O)Nc2ccc(Br)cc2)cc1 | 0.337
4 | O=C(c1ccc(Br)o1)N1CCN(c2ccc3nnc(-c4ccccc4)n3n2)CC1 | -1.78
5 | CC(=O)Nc1nc(SCc2ccc(Cl)cc2Cl)n[nH]1 | -0.0823
6 | COc1ccc(C)cc1NC(=O)CSc1nnc(-c2ccccn2)n1Cc1ccco1 | 0.359
7 | COc1ccc(CCn2c(C)cc(C(=O)CSc3nnnn3C)c2C)cc1 | -0.317
8 | Cc1ccccc1Nc1nnc(SCC(=O)N(C)C2CCS(=O)(=O)C2)s1 (stereo unspecified) | -0.0982
9 | O=C(Nc1ccc(S(=O)(=O)Nc2ccccc2)cc1)C1COc2ccccc2O1 (stereo unspecified) | -0.811
10 | O=C(Cc1ncc(C(F)(F)F)cc1Cl)N1CCN(c2ccc(F)cc2)CC1 | -0.125
11 | CCc1cccc(CC)c1NC(=O)C(NS(=O)(=O)c1cccs1)c1ccccc1 (stereo unspecified) | -0.321
12 | O=C(COC(=O)c1cccc(S(=O)(=O)N2CCOCC2)c1)Nc1nc(-c2ccccc2Cl)cs1 | -0.143
13 | O=C(Nc1cccn(Cc2ccc(F)cc2)c1=O)NC1CCCCC1 | -0.23
14 | Cc1c(C(=O)O)sc2ncn(C)c(=O)c12 | 0.364
15 | COc1cc(OC)cc(C(=O)NCCCN2CCN(CCCNC(=O)c3cc(OC)cc(OC)c3)CC2)c1 | -0.137
16 | COC(=O)CNC(=O)COC(=O)c1cc(F)c(F)cc1Cl | -0.284
17 | CCOc1ccc(OCC)c(NC(=O)c2[nH]c(C)c(C(C)=O)c2C)c1 | 0.862
18 | CCOC(=O)CSc1cc(C)nc(N)n1 | -0.197
19 | CCCCNC(=O)CSc1nnc(-c2c[nH]c3ccccc23)n1CC1CCCO1 (stereo unspecified) | -0.272

Row | SMILES | z-score
20 | COc1ccc(OC)c2sc(NC(=O)C3=COCCO3)nc12 | -0.168
21 | O=C(NCc1ccco1)[C@@H]1CSC2c3ccccc3C(=O)N21 (stereo partly specified) | 0.102
22 | Cc1ccc(-c2nn(CC(=O)Nc3ccc4c(c3)nc3n4CCOC3)c(=O)c3ccccc23)cc1 | -0.236
23 | Cc1nn(-c2ccccc2)c(OC(=O)c2cccs2)c1S(=O)(=O)c1ccc([N+](=O)[O-])cc1 | 0.288
24 | CCC12CN(C(=O)c3ccc(C)cc3)CC(CC)(CN(C(=O)c3ccc(C)cc3)C1)C2=O | -0.191
25 | O=C1CCCC2=C1C(c1ccncc1)Nc1ccccc1N2 (stereo unspecified) | -0.194
26 | CC(Oc1ccccc1F)C(=O)NCCN1CCCCC1 (stereo unspecified) | 0.182
27 | Cc1ccc(-c2csc3nnc(SCc4csc(C)n4)n23)cc1 | -0.489
28 | Nc1cc(-c2cccc(Br)c2)nn1Cc1ccccc1 | 0.00672
29 | Cn1c(=O)c2c(nc(Oc3ccc4ccccc4c3)n2C)n(C)c1=O | 0.32
30 | N#CCCN(CCC#N)C(=O)c1ccc2c(c1)OCO2 | 0.193
31 | CC1=CC(=O)N(c2cccc(C(F)(F)F)c2)C1c1ccc(Cl)cc1 (stereo unspecified) | -0.739
32 | COc1ccc(CCNC(=O)CSc2nc3ccccc3o2)cc1 | -0.405
33 | Cc1sc2nc(C(C)C)nc(SCC(=O)N3CCN(C(=O)c4ccco4)CC3)c2c1C | 0.591
34 | O=C1NC(=O)C2(COC(c3cccnc3)OC2)S1 (stereo unspecified) | 2.49
35 | CC(C)c1nnc(NC(=O)CCC(=O)N2CCN(c3ccccn3)CC2)s1 | 0.00447
36 | Cc1cc(C)cc(NC(=S)/N=C(\N)Nc2nc(C)c3ccccc3n2)c1 | -0.00288
37 | CC(Cl)C(=O)NNc1cccc(Cl)n1 (stereo unspecified) | -0.0997
38 | COc1ccccc1CNC(=O)c1ccccc1NS(C)(=O)=O | 0.327

Row | SMILES | z-score
39 | COc1ccc(Cc2nnc(SCC(=O)NC3CCCCC3)n2C)cc1 | -0.16
40 | c1ccc(CN2CCN(c3nc4ccccc4n4cnnc34)CC2)cc1 | -0.0719
41 | CCCCCn1c(C(Cc2ccccc2)NC(C)=O)nc2ccccc21 (stereo unspecified) | -1.11
42 | Cc1cc(C)cc(N2CCN(C(=O)N3CCOCC3)CC2)c1 | 0.426
43 | Cc1ccc2nc(SCc3ccccc3)c(C=O)c(=O)n2c1 | -0.181
44 | CCC(C)N1CC(O)=C(c2nc3ccccc3[nH]2)C1=N (stereo unspecified) | 0.185
45 | Nc1nnc(SCc2ccc(F)cc2)n1-c1ccccc1 | -0.0735
46 | Cc1csc(NC(=O)C2CCCC2)n1 | 0.0786
47 | CC(C)CCNC(=O)COC(=O)c1ccc(Br)o1 | -0.14
48 | COC(=O)c1sccc1NC(=O)CSc1ccccc1NS(=O)(=O)c1ccc(Cl)cc1 | active: 3.6
49 | CCOc1cc(/C=C2\N=C(C)OC2=O)cc(Br)c1OCCc1ccccc1 | -0.152
50 | CC(CN1CCN(C)CC1)OC(=O)c1ccc(Cl)cc1Cl (stereo unspecified) | 0.335
51 | C=CCCCCCCCCc1nc(=S)[nH][nH]1 | active: 9.76
52 | O=c1c(Cl)c(NCc2ccc(F)cc2)cnn1C12CC3CC(CC(C3)C1)C2 | 0.25
53 | OCCN(CCO)c1ccc(C(c2ccccc2Cl)c2ccc(N(CCO)CCO)cc2Cl)c(Cl)c1 | -0.563
54 | COC(=O)/C=C1/S/C(=N/NC(=O)c2ccccc2)NC1=O | -0.236
55 | O=C(CCCN1C(=O)c2ccccc2C1=O)Nc1sc2c(c1C(=O)NCc1ccco1)CCC2 | -0.742
56 | O=c1c2ccccc2cnn1-c1ccc(Br)cc1 | -0.172
